Patent publication US20220175920A1 (INSERM INSTITUT NATIONAL DE LA SANTE ET DE LA RECHERCHE …, published 2022)

Key:
[1] = molecular target: T1, human CD40 on cells (B cells, MDDCs, stably transfected CHO cells) (human, UniProt P25942 21-277); assay: cell-based or functional assay
[2] = molecular target: human CD40 ectodomain fused to FAS transmembrane and intracellular domains, on CHO cells (human); assay: cell-based or functional assay
[3] = molecular target: T1, human CD40 on cells (B cells, MDDCs, …); assay: cell-based or functional assay; remark: listed apart in the source
[4] = molecular target: T2, cohesin-human CD40 ectodomain protein (P3398) (human); assay: SPR, mAb immobilized on protein A/G surface, soluble human CD40 ectodomain in the liquid phase
T2 construct: SPR analyte; also called soluble human CD40 ectodomain; liquid phase soluble human CD40 ectodomain; not shown: cohesin domain of P3398 and its junction to CD40

T1 sequence (P25942 21-277): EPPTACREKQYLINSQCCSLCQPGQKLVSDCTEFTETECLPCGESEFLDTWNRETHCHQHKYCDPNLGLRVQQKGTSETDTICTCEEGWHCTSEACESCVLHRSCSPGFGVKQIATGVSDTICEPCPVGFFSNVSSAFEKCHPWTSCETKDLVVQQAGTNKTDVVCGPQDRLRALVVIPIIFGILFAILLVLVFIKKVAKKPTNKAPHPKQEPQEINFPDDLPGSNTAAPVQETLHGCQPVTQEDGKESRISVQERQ

B1: anti-CD40 11B6-CD40L IgG4 (human CD40L fused via Flex-v1 to the light chain C-terminus) (other)
heavy: EVQLVQSGAEVKKPGASVKISCKASGYSFTGYYMHWVKQAHGQGLEWIGRINPYNGATSYNQNFKDRATLTVDKSTSTAYMELSSLRSEDTAVYYCAREDYVYWGQGTTVTVSSAKTKGPSVFPLAPCSRSTSESTAALGCLVKDYFPEPVTVSWNSGALTSGVHTFPAVLQSSGLYSLSSVVTVPSSSLGTKTYTCNVDHKPSNTKVDKRV[in this place human IgG4 Fc with changes and a few adjoining residues]
light: DVVMTQSPLSLPVTLGQPASISCRSSQSLVHSNGNTYLHWYQQRPGQSPRLLIYKVSNRFSGVPDRFSGSGSGTDFTLKISRVEAEDVGVYFCSQSTHVPWTFGGGTKLEIKRTVAAPSVFIFPPSDEQLKSGTASVVCLLNNFYPREAKVQWKVDNALQSGNSQESVTEQDSKDSTYSLSSTLTLSKADYEKHKVYACEVTHQGLSSPVTKSFNRGECASQTPTNTISVTPTNNSTPTNNSNPKPNPASMQKGDQNPQIAAHVISEASSKTTSVLQWAEKGYYTMSNNLVTLENGKQLTVKRQGLYYIYAQVTFCSNREASSQAPFIASLCLKSPGRFERILLRAANTHSSAKPCGQQSIHLGGVFELQPGASVFVNVTDPSQVSHGTGFTSFGLLKL
notes: also called PAB3470; 11B6-CD40L mAb
fold increase in potency for B cell proliferation against the parent mAb [1]: > 1000 fold
fold more active for MDDC cytokine secretion than Mega sCD40L co-administered with 10 nM anti-CD40 11B6 [1]: 100 fold
fold more robust increase for B cell proliferation than 11B6 mAb co-administered with sCD40L [1]: > 10 fold
EC50 of killing of CD40-FAS CHO cells (loss of MTT reduction) [2]: 2.5 pM
EC50/11B6-CD40L, IL-12 p40 [3]: 1 ratio
EC50/11B6-CD40L, IL-15 [3]: 1 ratio
EC50/11B6-CD40L, TNFα [3]: 1 ratio
fold decrease of the off-rate against the parental anti-CD40 11B6 mAb [4]: ~15 fold
